From PMC4336329 (PLoS ONE, 2015)
In all, about 310,000 compounds went through this assay and about 2,200 (0.71%) showed an effect of 50% or more. Effects have a minus sign here. Some of the results follow.

The molecules below were run against human ether-à-go-go-related gene (hERG) potassium channel (human, UniProt Q12809) (assay: primary screen, population patch clamp on CHO cells stably expressing hERG).
Sequence of human ether-à-go-go-related gene (hERG) potassium channel (Q12809 whole entry, looked up): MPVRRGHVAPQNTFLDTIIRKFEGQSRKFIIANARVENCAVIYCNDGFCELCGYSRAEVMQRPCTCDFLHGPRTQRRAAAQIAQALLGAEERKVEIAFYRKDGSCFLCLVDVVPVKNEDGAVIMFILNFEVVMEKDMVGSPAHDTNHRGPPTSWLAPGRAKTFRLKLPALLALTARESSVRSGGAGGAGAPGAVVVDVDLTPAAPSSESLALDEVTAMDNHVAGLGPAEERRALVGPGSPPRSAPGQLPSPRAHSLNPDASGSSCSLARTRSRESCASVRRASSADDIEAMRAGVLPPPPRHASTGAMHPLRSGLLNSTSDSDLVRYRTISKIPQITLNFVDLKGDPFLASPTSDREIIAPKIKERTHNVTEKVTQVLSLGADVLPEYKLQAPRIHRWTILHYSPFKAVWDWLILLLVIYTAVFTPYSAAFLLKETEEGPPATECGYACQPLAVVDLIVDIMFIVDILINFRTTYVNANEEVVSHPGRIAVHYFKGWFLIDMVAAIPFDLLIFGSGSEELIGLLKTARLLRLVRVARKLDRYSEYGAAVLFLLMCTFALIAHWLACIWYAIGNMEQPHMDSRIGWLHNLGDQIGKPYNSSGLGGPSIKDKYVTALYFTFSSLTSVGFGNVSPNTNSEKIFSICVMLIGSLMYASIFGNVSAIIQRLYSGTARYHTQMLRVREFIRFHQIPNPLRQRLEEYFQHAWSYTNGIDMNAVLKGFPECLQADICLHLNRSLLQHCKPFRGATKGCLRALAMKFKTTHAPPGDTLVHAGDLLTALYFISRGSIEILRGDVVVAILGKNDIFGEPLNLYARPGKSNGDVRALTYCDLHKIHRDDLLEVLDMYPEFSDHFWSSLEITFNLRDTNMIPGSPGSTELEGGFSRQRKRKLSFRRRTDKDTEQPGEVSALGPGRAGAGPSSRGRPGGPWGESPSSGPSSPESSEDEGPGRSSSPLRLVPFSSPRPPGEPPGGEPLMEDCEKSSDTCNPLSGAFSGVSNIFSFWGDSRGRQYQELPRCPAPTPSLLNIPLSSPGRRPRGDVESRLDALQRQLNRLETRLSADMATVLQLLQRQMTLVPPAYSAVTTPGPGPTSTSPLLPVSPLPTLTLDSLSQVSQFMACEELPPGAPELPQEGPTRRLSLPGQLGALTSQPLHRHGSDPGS

SMILES | hERG current change (%, negative = inhibition) at 1uM [%]
CCN(CC(F)(F)C(F)F)S(=O)(=O)c1ccc(NC(=O)OC)cc1 | 4.29
COc1ccc(/C=C2\SC(=O)N(CC(=O)NC3C=CS(=O)(=O)C3)C2=O)cc1 (stereo not shown) | 9.31
O=C(O)c1ccccc1NC(=O)C1C2CCC(O2)C1C(=O)O (stereo not shown) | 9.73
O=C1c2ccccc2C(=O)N1CSc1nnc(Nc2ccccc2F)s1 | 5.23
CCc1c(C)[nH]n(-c2nc(-c3cccc([N+](=O)[O-])c3)cs2)c1=O | 12.2
CCOc1ccccc1N1CCN(C(=O)C2=CC=CN3CCS(=O)(=O)N=C23)CC1 | 9.94
NC(=O)CSc1ncnc2c1oc1ccccc12 | 12.8
O=C(NCCCn1ccnc1)c1cccc(Cl)c1 | 8.85
COc1ccc(NC(=O)c2c(C(F)(F)F)nn(C)c2SCc2ccccc2)cc1 | 14.9
Cc1nc2cc(C(=O)N3c4ccccc4CC3C)ccc2s1 (stereo not shown) | 7.63
Cc1cccc2cc(CN(C(=S)NCC(C)C)C3CCCC3)c(=O)[nH]c12 | 14
COc1ccc(-n2c(C)nn(C)c2=O)cc1 | 9.88
CCc1nc2ccc(C(=O)N(C)CC(=O)Nc3ccc(Cl)c(C(F)(F)F)c3)cc2nc1CC | 6.47
COC(=O)C(C)(C)ONC(=O)Nc1ccccc1 | 4.94
Fc1ccc(N2CN(Cc3cccnc3)CNC2=S)cc1 | 14.3
CC(=O)NC1(c2cccc(F)c2)CCN(CC(=O)NC(C)C)CC1 | 5.25
NC(=O)C1CC(=O)N(CCc2ccc(F)cc2)C1 (stereo not shown) | 8.95
CCOc1cc(NC(=S)NCc2ccco2)c(OCC)cc1NC(=O)c1ccco1 | 9.12
COc1ccc(C)c2sc(=NC(=O)c3ccccc3)n(C)c12 | 18.2
CCOC(=O)NC(=O)CSc1nc2ccc([N+](=O)[O-])cc2[nH]1 | 11.5
CSc1ccccc1NC(=O)CSc1n[nH]c(N)n1 | 8.8
COc1cc(/C=C/c2nc3ccccc3c(=O)[nH]2)cc(OC)c1OC | 11.6

SMILES | hERG current change (%, negative = inhibition) at 1uM [%]
Cc1ccccc1OCC(=O)Nc1cnn(CCCC(=O)O)c1 | 13.1
O=C(NNC(=O)c1cc(Br)ccc1Cl)c1csc(N2CCOCC2)n1 | 4.13
Cc1cc(NC(=O)CN2C(=O)S/C(=C\c3ccccc3)C2=O)no1 | -4.21
CC(NCC(=O)Nc1cc(S(=O)(=O)N2CCOCC2)ccc1Cl)c1ccc(Cl)cc1Cl (stereo not shown) | 8.12
CCc1[nH]nc(C(=O)N/N=C/c2ccncc2)c1C | -18.2
C/C(=N\NC(=O)c1nn(C)c(C)c1Br)c1ccc(NC(=O)C2CCCC2)cc1 | 14.7
O=C(c1ccc(Cl)nc1)N1CCN(S(=O)(=O)c2ccc(Cl)cc2)CC1 | -5.09
COc1ccc2c(Cl)c(C(=O)NCCCn3ccnc3)sc2c1 | 6.5
CCCN1CCN(C(=O)CCn2c(=O)c3cccn3c3cccnc32)CC1 | 2.22
COc1ccccc1NC(=O)CN1C(=O)COc2ccc(C)cc21 | 8.28
COc1cccc(CNC(=O)CCNS(=O)(=O)c2ccc3[nH]c(=O)oc3c2)c1 | 7.21
COc1ccc(OC)c(N(C(=O)c2ccco2)C(C(=O)NC2CCCC2)c2ccc(N3CCOCC3)cc2)c1 (stereo not shown) | 8.75
CC(=O)Nc1ccc(C(=O)Nc2cccc(S(=O)(=O)NC3=NCCC3)c2)cc1 | 3.54
CCOc1ccc(C2/C(=C(\O)c3ccc4c(c3)OCCO4)C(=O)C(=O)N2Cc2cccnc2)cc1OCC (stereo not shown) | 15.8
C/C(=N/OCO/N=C(\C)c1ccccc1)c1ccccc1 | 19.7
CSCC[C@H](NC(=O)OC(C)(C)C)C(=O)N1CCC(C(=O)NCC(=O)Nc2ccc(C)cc2)CC1 | 11.9
O=C(c1cc(-c2ccc(O)cc2)on1)N1CCCc2ccccc21 | 8.9
Cn1c(SCC(=O)N/N=C/C=C/c2ccco2)nc2ccccc21 | -1.47
O=C1CC(N2CCC(c3nc4ccccc4o3)CC2)C(=O)N1c1cc(Cl)cc(Cl)c1 (stereo not shown) | -3.71
CC1(C)Cc2ccccc2C(COc2ccccc2)=N1.Cl | 18.4
Fc1ccc(NC(=S)N2CCN(C/C=C/c3ccccc3)CC2)c(F)c1 | 13
